# Reference: the supplement of paper PMC10338343
# ± gives the standard deviation. Whole data set: some 6,600 sequences, median “pre-steady-state target cleavage rate” near 0.07, cut for the highest 2% near 0.72. The entries are a selection whose mix differs from that of the whole data set.
# System: MIWI (PIWIL1) piRISC loaded with Kctd7 piRNA (30 nt)
# Experiment: pre-steady-state target cleavage rate (min^-1); MIWI and MILI are mouse PIWI proteins and EfPiwi is from a freshwater sponge; tags in brackets are library labels; higher = faster piRNA-guided slicing of the target
# Conditions: guide: Kctd7 piRNA 5'p-UGUUAAUCUCUCAGAGAAGGUGACAGUGAU; auxiliary factor: 500 nM mouse GTSF1
# Outline: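 At 33 °C in HEPES–potassium acetate buffer, a transcribed, DNA-blocked target RNA library […] was exposed for 0–8 or 0–960 min to 1 nM active affinity-purified piRISC carrying a single synthetic guide, with or without 500 nM GTSF1 partner protein. Uncleaved targets were sequenced and normalised to depth and to weakly complementary targets. With three trials pooled and k3 capped at 0.0001 min^-1, a burst-and-steady-state fit produced the pre-steady-state cleavage rate.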
# 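Further: 1 nM active piRISC with 0.1 nM target library at 33 °C single turnover.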
row,Sequence,pre-steady-state target cleavage rate
1,UAGUGAGUCACCUUCUCUGAGAGAUUAGACA,0.285 ± 0.047
2,UAGUGAGUCUCCUUCUCUGAGAGUUUAACA,0.271 ± 0.05
3,UUCACUGCACCUUCUCUGAGAGAUUAACA,0.675 ± 0.038
4,UAGUGACUCACCUUGUCAGAGAGAUUAACA,0.0182 ± 0.0042
5,UAGACUGUGACCUUCUCUGACAGAUUAACA,0.249 ± 0.026
6,UUCACUGUGUCCUUCUCUGAGAGAUUAAGA,0.138 ± 0.024
7,UACACUGUCACCAUCUCUCAGAGAUUAACA,0.0433 ± 0.0098
8,UAGUGACAGUCAUUCUCUGAGAGAUUAACA,0.0075 ± 0.0025
9,UAGACAGUCACCUUCUCUGAGAGAAUAACA,0.394 ± 0.063
10,UAGUGACAGUGGAAGUCUGAGACAUAAACA,< 0.0001
11,UAGUGUGUCAUCUUCUCUGAGAGAUUAACA,0.487 ± 0.026
12,UAGUGACAGACCUUGUCUGUGAGAUUAACA,0.00699 ± 0.0042
13,UAGUGAGUCACCUUGUCUGAGAGAUUAAGA,0.0318 ± 0.0098
14,UAGUGACAGUCCUUCUGUGAGAGAUUAACA,0.0195 ± 0.0039
15,UAGUGUGUCACCUUCUCUGAGAGAUUUUCA,0.114 ± 0.019
16,UAGUGAGUCAGCUUCUCUGACAGAUUAACA,0.166 ± 0.02
17,UAGUGUGUCACCUUCUCUGAGUCAUUAACA,0.0174 ± 0.0057
18,UAGUGACUCACCUUCUCUGACAGAUUAAGA,0.0163 ± 0.0043
19,UAGUGACAGUCCUUCUCUGAGUGAUUAACA,0.00395 ± 0.0021
20,UUCACUGUCACCUUCCCUGAGAGAUUAACA,0.436 ± 0.059
21,UUGACUGUCACCUUCUCAGAGAGAUUAACA,0.346 ± 0.021
22,UAGUGACAGACCUUCUCUGACAGAUUAACA,0.0495 ± 0.0088
23,UAGUGUGUCACCUGUCUCUGAGAGAUUAACA,0.434 ± 0.027
24,UUCACUGUCACCUUCUCUGAGACUUUAUGA,0.00438 ± 0.0033

row,Sequence,pre-steady-state target cleavage rate
1,UAGUGAGUCACCUUCUCUCAGAGAUUUACA,0.0294 ± 0.0092
2,UAGUGAGUCACCUUCUCUGAGAGAUUAAACA,0.496 ± 0.049
3,AUCACUGUCACCUUAUCUGAGAGAUUAACA,0.63 ± 0.025
4,AUCACUGUCACCUUCUCUGAGAGGUUAACA,0.383 ± 0.03
5,AUCACUGUCACCUUCUCUGAGACAAUAACA,0.0188 ± 0.0067
6,UAGUGUGUCACCUUCUCUGAGAGAUUACA,0.104 ± 0.021
7,UAGUCAGUCACCUUCUGUGAGAGAUUAACA,0.639 ± 0.034
8,UAGUGAGUCACCUUGUGUGAGAGAUUAACA,0.131 ± 0.019
9,UAGUCUGUCAGCUUCUGUGAGAGAUUAACA,0.392 ± 0.02
10,UUCACUGUCACCUACACUGAGAGAUUAACA,0.377 ± 0.021
11,UAGUGAGUCACCUUCUCUAGAGAUUAACA,0.177 ± 0.017
12,UAGUGACAGUCCUUCUCUGAGAGAUUAGCA,0.0335 ± 0.0075
13,AUCACUGUCACCUUCUCUGAGAGAUAAUCA,0.128 ± 0.021
14,AUCACUGUCACCUUCUCUGAGAGUAUAUGA,0.0293 ± 0.011
15,UAGUGACACACCUUCUCUGAGAGUUUAACA,0.197 ± 0.038
16,UAGUGACAGUCCUUCUAUGAGAGAUUAACA,0.0126 ± 0.0053
17,UAGUCUGUCAGCUACUCUGAGAGAUUAACA,0.485 ± 0.029
18,UAGUGAGUCACCAUCUCUGAGAGAUAAACA,0.327 ± 0.039
19,UAGUGAGUCACCUUCUAUGAGAGAUUAACA,0.22 ± 0.018
20,UAGUGACAGUGCUUCUCUGAGAGAUAACA,< 0.0001
21,UUCACUGUGACCUUCUCUGAGAGAUAAACA,0.214 ± 0.023
22,AUCACUGUCACCUUCUUCUGAGAGAUUAACA,0.212 ± 0.046
23,AUCACUGUCACCUACUCAGAGAGAUUAACA,0.152 ± 0.015
24,UAGUGACUCACCUUCUCUGAGGGAUUAACA,0.486 ± 0.031

row,Sequence,pre-steady-state target cleavage rate
1,AUCACUGUCACCUUCUCUCUGAGAUUUUGA,0.0121 ± 0.0059
2,UAGUCACACACCUUCUCUGAGAGAUUAAGA,0.188 ± 0.034
3,UACAGUGUCACCUUCUCUGAGAGAUUAAGA,0.128 ± 0.025
4,AUCACUGUCUCCUUGUCUGAGAGAUUAACA,0.412 ± 0.061
5,UAGUGACAGUCCUUCUCUGAGGGAUUAACA,0.0348 ± 0.0076
6,UAGUGAGUCACCUUCUCUGAGAGUAUUUGA,0.104 ± 0.029
7,UAGUGUGUCACCUUCUCUGUGACAUUAACA,0.0104 ± 0.0036
8,UAGUGACAGUGGAAGUCAGAGAGUUUAACA,< 0.0001
9,AUCACUCUCACCUUCUCUGAGAGAUAUUGA,0.0172 ± 0.0076
10,UAGACUGUCACCUUCUCUGAGCGAUUAACA,0.0506 ± 0.007
11,UAGUGACACACCUUCUCUGAAAGAUUAACA,0.384 ± 0.029
12,UAGUGACUCUCGUUCUCUGAGAGAUUAACA,0.00773 ± 0.0047
13,AUCACUGUCACCUUCUCUGUCAGAUUAUGA,0.0125 ± 0.007
14,AUCACUGUCACCUACUCUGAGAGAAUAACA,0.41 ± 0.064
15,UAGUCUGUCACCUUCACUGAGUGAUUAACA,0.0279 ± 0.0062
16,UAGUGAGACUCCUUCUCUGAGAGAUUAACA,0.243 ± 0.021
17,UAGUGACACACCUUCUCUGAGAGAUUAUGA,0.053 ± 0.011
18,UAGUGACUCACCUUCUCUGAGAGAUCAACA,0.338 ± 0.052
19,UAGUGUGUCACCUUCUCUGAGAGAGUUAACA,0.433 ± 0.061
20,AUCACUGUCACCUUCUCUGACAGAUAAACA,0.0189 ± 0.0056
21,UUCACUGUCACCUUGACUGAGAGAUUAACA,0.167 ± 0.021
22,UUCACAGUCACCUUCUCAGAGAGAUUAACA,0.51 ± 0.031
23,UAGUGUGUCACCUUCUCUGAGACAUAAACA,0.0331 ± 0.0077
24,UUCACUGUCACCUUCUCUGAGAGAUCAACA,0.233 ± 0.037

row,Sequence,pre-steady-state target cleavage rate
1,UAGUCUGACACCUUCUGUGAGAGAUUAACA,0.409 ± 0.021
2,UUCACUGUCAGGUUCUCUGAGAGAUUAACA,0.603 ± 0.041
3,UUCACUGUCUGCUUCUCUGAGAGAUAUUGA,0.00381 ± 0.0035
4,UAGUCUCUCACCUUCUCUGAGACAUUAACA,0.239 ± 0.02
5,UUCACUGUGACCUUCUCUGAGAGAAUAACA,0.176 ± 0.029
6,UAGUGACUCACCUUCUCUGAGAGAUAUUGA,0.0155 ± 0.0056
7,UAGACUGUCAGCUUCUCUGAGUGAUUAACA,0.0107 ± 0.0021
8,AUCACUCUCACGUUCUCUGAGAGAUUAACA,0.46 ± 0.023
9,UAGUGUGAGACCUUCUCUGAGAGAUUAACA,0.251 ± 0.016
10,UAGUGUGUCUACCUUCUCUGAGAGAUUAACA,0.105 ± 0.013
11,UAGUGAGUCAACCUUCUCUGAGAGAUUAACA,0.172 ± 0.018
12,UAGUGUGUCACCUUCUGUGACAGAUUAACA,0.182 ± 0.051
13,UACACUGUCUCCUUCUCUGAGAGAUUUACA,0.261 ± 0.036
14,AUCACUGUGUGCUUCUCUGAGAGAUUAACA,0.0639 ± 0.011
15,UUCACAGUCACCUUCUCUGAGAGAUUUUGA,0.115 ± 0.027
16,AUGACUGUCACCUUCUCUGAGACAUUAACA,0.0568 ± 0.01
17,UACACUGUCACGAACUCUGAGAGAUUAACA,0.131 ± 0.019
18,UAGUGACAGACCUCCUCUGAGAGAUUAACA,0.326 ± 0.028
19,AUCACUGUCACGUUCUGUGAGAGAUUAACA,0.518 ± 0.026
20,UACACUGUCACCUUCUCUGACAGUUUAACA,0.0129 ± 0.0048
21,UAGUGUGUCACCUUCUCUGACUCAUUUUGA,0.0047 ± 0.0045
